Assay results: article PMC4336329 (PLoS ONE, 2015)
Out of some 310,000 compounds screened, about 2,200 (0.71%) showed an effect of 50% or more. The effect is printed as a negative number. The list shows a part of the results.

What follows are compounds tested against human ether-à-go-go-related gene (hERG) potassium channel (human, UniProt Q12809) (assay: primary screen, population patch clamp on CHO cells stably expressing hERG).
human ether-à-go-go-related gene (hERG) potassium channel, sequence (Q12809 whole entry, looked up): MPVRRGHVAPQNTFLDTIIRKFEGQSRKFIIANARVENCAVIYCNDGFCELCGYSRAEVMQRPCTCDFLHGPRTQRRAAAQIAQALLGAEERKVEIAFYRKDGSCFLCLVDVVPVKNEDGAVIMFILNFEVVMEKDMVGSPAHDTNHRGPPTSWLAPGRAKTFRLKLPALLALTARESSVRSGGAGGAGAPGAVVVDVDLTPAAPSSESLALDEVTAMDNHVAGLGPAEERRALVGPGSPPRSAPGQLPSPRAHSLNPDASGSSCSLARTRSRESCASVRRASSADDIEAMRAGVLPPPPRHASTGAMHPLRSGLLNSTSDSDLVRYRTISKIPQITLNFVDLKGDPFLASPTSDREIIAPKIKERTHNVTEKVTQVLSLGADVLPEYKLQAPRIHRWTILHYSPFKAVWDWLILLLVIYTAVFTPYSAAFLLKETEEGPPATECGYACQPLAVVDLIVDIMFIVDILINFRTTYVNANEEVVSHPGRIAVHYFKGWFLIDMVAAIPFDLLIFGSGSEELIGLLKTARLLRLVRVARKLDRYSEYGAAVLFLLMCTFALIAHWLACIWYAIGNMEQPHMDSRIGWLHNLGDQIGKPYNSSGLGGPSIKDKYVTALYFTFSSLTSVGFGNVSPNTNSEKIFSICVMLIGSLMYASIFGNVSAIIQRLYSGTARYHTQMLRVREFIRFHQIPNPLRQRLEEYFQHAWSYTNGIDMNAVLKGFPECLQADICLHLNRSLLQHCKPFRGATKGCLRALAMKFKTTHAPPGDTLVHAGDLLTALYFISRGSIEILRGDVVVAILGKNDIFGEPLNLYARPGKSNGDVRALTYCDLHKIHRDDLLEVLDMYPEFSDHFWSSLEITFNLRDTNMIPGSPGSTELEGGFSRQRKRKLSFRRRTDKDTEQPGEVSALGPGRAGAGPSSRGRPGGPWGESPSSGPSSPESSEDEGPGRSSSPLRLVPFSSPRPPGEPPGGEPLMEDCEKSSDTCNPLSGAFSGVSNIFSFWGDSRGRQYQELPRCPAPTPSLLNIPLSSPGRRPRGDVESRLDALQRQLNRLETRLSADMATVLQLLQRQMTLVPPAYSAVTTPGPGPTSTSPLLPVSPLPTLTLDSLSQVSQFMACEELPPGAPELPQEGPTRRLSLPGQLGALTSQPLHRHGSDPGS

SMILES | hERG current change (%, negative = inhibition) at 1uM
CC1CCN(c2ccc(C(=O)Nc3ccc4c(c3)OCO4)cc2[N+](=O)[O-])CC1 | 11%
O=C(CCCCCN1C(=O)c2ccccc2C1=O)NCc1ccco1 | 0.764%
Cc1nnc(NC(=O)CCNC(=O)c2ccccc2Cl)s1 | 4.88%
CC(=O)NCCc1nc2cc(NC(=O)c3cccc([N+](=O)[O-])c3)ccc2n1C | 12.8%
COc1ccccc1-n1cc([C@@H]2C[C@H]3CN(c4ccccc4)C(=O)[C@]34CCCN24)cn1 | -0.434%
O=C(COc1ccc(Cl)cc1Cl)N1CCNC1=O | -0.229%
O=c1cc(NS(=O)(=O)c2ccccc2)nc(SCc2c(Cl)cccc2Cl)[nH]1 | 15%
Cc1ccc(/C=C/c2nnc(-c3ccccc3)o2)cc1 | 10.2%
CC(=O)Nc1ccc(S(=O)(=O)N2CCN(CCCOc3cc(C)ccc3C)CC2)cc1 | -19.5%
COc1cccc(CNC(=O)CCN2C(=O)[C@@H]3Cc4ccccc4CN3C2=O)c1 | 20.2%
Cc1ccc(S(=O)(=O)N(C)c2ccc(C(=O)Nc3cccnc3)cc2)cc1 | 18.8%
C/C(CC(=O)Nc1ccc(Cl)c(Cl)c1)=N\NC(N)=S | 13.5%
CCN(CC)S(=O)(=O)c1cccc(-c2nnc(SCc3ncc(-c4ccccc4)o3)n2C)c1 | -26.7%
COc1ccc2c(c1)C1(C)CC(C)(C)N2C(=O)N1c1ccccc1 (stereo not shown) | 8.74%
O=C(NCCSc1ccccc1)c1ccccc1F | 11.3%
COC(=O)CCc1c(C)nn(-c2ccccc2)c1C | 2.29%
NC(=O)CSc1nnc(C2CC2)n1-c1ccccc1 | 14.7%
CCC12C(=O)C(CC)(C(c3ccccc3)=C1c1ccccc1)[C@@H]1C(=O)N(c3ccccc3)C(=O)C12 (stereo partly shown) | 7.84%
CC(Oc1ccccc1)C(=O)Nc1nnc(S(=O)(=O)N(C)c2ccccc2)s1 (stereo not shown) | 8.63%
COc1ccc(S(=O)(=O)N2CCC(C(=O)N3CCc4ccccc4C3)CC2)cc1 | 0.0728%
CC1(C)CC2CC(C)(CN2CC(O)c2ccccc2)C1.O=C(O)C(=O)O (stereo not shown) | -28.2%
CC(C)c1ccc(S(=O)(=O)N2CCN(C(C)C(=O)Nc3ccccc3-c3ccccc3)CC2)cc1 (stereo not shown) | 10.4%

SMILES | hERG current change (%, negative = inhibition) at 1uM
O=[N+]([O-])c1ccc(-c2nnc([S-])n2-c2ccccc2)cc1.[Na+] | 18.4%
COc1cccc(N2C(=O)CC(c3c[nH]c4ccccc34)C2=O)c1 (stereo not shown) | 17.4%
CN(C)CCNc1nc(S(=O)(=O)c2ccccc2)c(Cl)s1 | -7.51%
CCCOCn1cc(F)c(=O)[nH]c1=O | 4.83%
COc1ccc(CN(C2CCCC2)S(=O)(=O)c2ccc(-n3cnnn3)cc2)cc1 | 0.683%
O=C(CCN1C(=O)[C@@H]2Cc3ccccc3CN2C1=O)NCc1ccc(Cl)cc1 | -19.1%
O=C(NCc1ccc(Cl)cc1)c1cc2c(nc3sccn32)s1 | 8.37%
Cc1ccc(-c2nn(-c3ccccc3)cc2C(=O)NCC2CCCO2)cc1 (stereo not shown) | 1.49%
O=C(CSc1nnc(COc2cccc3ccccc23)o1)N1c2ccccc2CCc2ccccc21 | 19.4%
CC(Oc1ccc(Cl)cc1)C(=O)Nc1sccc1C(N)=O (stereo not shown) | 6.57%
CC(C)(C)C(=O)c1cn(CC(=O)NCc2ccco2)c2ccccc12 | 13.3%
O=C(NCc1nc2ccccc2[nH]1)c1cccc(S(=O)(=O)N2CCCCC2)c1 | 2.53%
CN1CCN(S(=O)(=O)c2cccc(S(=O)(=O)c3cccc(S(=O)(=O)N4CCN(C)CC4)c3)c2)CC1 | 2.64%
Cc1cc(NC(=O)CSc2ccc3nnc(CCNC(=O)c4ccccc4)n3n2)no1 | 15.4%
Cc1ccc(S(=O)(=O)NCCC(=O)NC2CCCC2)cc1 | 1.28%
CCCC1=[N+](CC(=O)c2ccc(Br)cc2)CCn2cccc21.[Br-] | 14.3%
COc1cc(-c2nc3n(c(=O)c2C#N)CCS3)cc(OC)c1OC | 10.6%
C=C1CSc2nc3ccccc3c(=O)n21 | 10.8%
Cc1ccc(NC(=O)CO/N=C(\N)c2nonc2N)cc1C | -1.41%
C/C(=N\O)c1ccn(S(=O)(=O)c2ccc(Cl)cc2)c1 | 14.2%
CNC(=O)NC(=O)CSc1ccc(NC(C)=O)cc1 | 7.97%
CC(=O)c1ccc(S(=O)(=O)NCC(=O)N2CCN(C/C=C/c3ccccc3)CC2)cc1 | -11.1%

SMILES | hERG current change (%, negative = inhibition) at 1uM
Cc1ccc(-n2nc(C(=O)O)cc2-c2ccc(Cl)cc2)cc1 | 8.61%
COc1cc(/C=c2\s/c(=C(/C#N)C(=O)N3CCCC3)n(-c3ccccc3)c2=O)ccc1O | -5.84%
Cc1ccc(-n2c(-c3cccc(C)c3)n[nH]c2=S)cc1 | 12.2%
COc1ccc2cc(/C=N/NC(=O)c3ccc(CN(c4cccc(Cl)c4Cl)S(C)(=O)=O)cc3)c(Cl)nc2c1 | 10.8%
COc1ccc(S(=O)(=O)N(CC(=O)NCC2CCCO2)c2ccc(F)cc2)cc1OC (stereo not shown) | 11.9%
O=C1N(CN2CCOCC2)c2ccccc2C12OCC(CCl)O2 (stereo not shown) | -12.7%
Cc1ccc(Cl)cc1NC(=O)c1cc(S(=O)(=O)N2CCOCC2)cn1C | 6.17%
Cc1nc2c(sc3nc4c(cc32)COC(C)(C)C4)c(=O)n1CC(=O)NCc1ccco1 | 3.21%
CC(C)(C)n1nc(Cc2cccc3ccccc23)c(C#N)c1N | 10.6%
O=C(NCCCN1CCCC1=O)c1ccc(OC(F)(F)F)cc1 | 12.5%
CCCC[C@H]1COCCS(=O)(=O)N1Cc1cccc([N+](=O)[O-])c1 | 0.874%
O=C(c1ccc(OC2CCN(C/C=C/c3ccc(F)cc3)CC2)cc1)N1CCCCC1 | -19.2%
Cc1ccc(C2=[N+]([O-])C3(CCCCC/C3=N\O)N(O)C2(C)C)o1 (stereo not shown) | -1.74%
O=C(Nc1nccs1)c1ccc(COc2ccc(Cl)cc2)o1 | 6.13%
CCOC(=O)c1ccc(COC(=O)c2ccc(-c3nnc(-c4ccccc4)o3)cc2)o1 | 1.79%
CN(C)C1(CNC(=O)C2CCC(=O)N(Cc3ccc(Cl)cc3)C2)CCCCC1 (stereo not shown) | 9.38%
CCOc1ccccc1N1CCN(C(=O)c2ccc3[nH]c4c(c3c2)CCCC4)CC1 | 16.6%
COc1ccccc1-n1c(C)cc(SC)c(C(C)=O)c1=S | 1.01%
O=c1[nH]cc(S(=O)(=O)Nc2ccc3c(c2)OCO3)c(=O)[nH]1 | -3.64%
COc1cc(OC)c(C(=O)OCC(=O)NC2CCCC2)cc1OC | 16.7%
CC(C)CNC(=S)N(CCO)Cc1cc2cc3c(cc2[nH]c1=O)OCO3 | 4.31%
CCN1CCN(Cc2ccc(NC(=O)c3ccc(C)c(NC(=O)c4csc(-c5ccncc5)n4)c3)cc2C(F)(F)F)CC1 | 9.53%

SMILES | hERG current change (%, negative = inhibition) at 1uM
CCS(=O)(=O)N1Cc2ccccc2CC1C(=O)Nc1nc2c(C)cccc2s1 (stereo not shown) | 16%
Cc1ccc(-c2csc(NC(=O)CN3CCOCC3)n2)cc1C | 13.6%
C=CCNC(=S)NN=C1CCCCCCC1 | 9.69%
O=C(CS(=O)CC(=O)N(CC(=O)NC1CCCC1)c1ccc2c(c1)OCCO2)Nc1ccc(F)cc1 (stereo not shown) | 10.1%
CC(=O)N1CCCc2cc(S(=O)(=O)N3CCCC(C(=O)Nc4ccc(C)cc4C)C3)ccc21 (stereo not shown) | 14.2%
COC(=O)C1=C(C)N(Cc2ccccc2)C(=O)N[C@H]1c1cccc(C(F)(F)F)c1 | 8.44%
Cc1[nH]c(C)c(S(=O)(=O)N2c3ccccc3CC2C)c1C(=O)N1CCCCC1 (stereo not shown) | 8.94%
CCOc1ccc(-c2cc(CCCC(=O)NCc3ccc(C)cc3)no2)cc1 | 13.1%
COC(=O)c1ccc(NC(=O)CCn2cccc2)cc1 | 20.3%
O=C(COC(=O)c1cc([N+](=O)[O-])ccc1Cl)NCCc1ccccc1 | 4.26%
N#Cc1c(-c2ccc(Cl)cc2)ccnc1N1CCOCC1 | 3.35%
Cc1ccc(N2C(=O)CC(Sc3ccccc3C(=O)O)C2=O)cc1 (stereo not shown) | 9.14%
Cc1ccc(C(=O)NCCc2n[nH]c(=S)n2C)cc1 | 10.6%
COc1ccc(OCC(=O)Nc2ccc(N3CCOCC3)cc2)c([N+](=O)[O-])c1 | 7.71%
CC1=CC(C2CC(=O)N(c3ccc(C)cc3)C2=O)CC2C(=O)N(c3ccc(C)cc3)C(=O)C12 (stereo not shown) | 11.6%
O=C(Nc1ccc(Cl)cc1)O/N=C(\c1ccccc1)c1ccccn1 | 0.811%
CCOC(=O)c1sc2nc(C)c3c(c2c1N)CC(C)(C)OC3 | 12.9%
Cc1nc(-c2ccccc2)sc1C(=O)Nc1ccccc1F | 13.6%
CCC1(CC)NC(=O)N(CC(=O)OCc2nc3cc(C(=O)OC)ccc3c(=O)[nH]2)C1=O | 9.38%
